Source: the supplement of paper PMC8728848
The other results are listed elsewhere or left out.

Columns and labels:
Test in all cases: glycan array binding signal (z-score within array); higher = stronger binding
Conditions in all cases: glycan notation: IUPAC condensed, linker removed
[1] = molecular target: GlcNAc(b1-4)GlcNAc(b1-4)GlcNAc(b1-4)GlcNAc(b1-4)GlcNAc(b1-4)GlcNAc
Method in brief: (§1)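 Glycan array data were curated from 3228 arrays in the Consortium for Functional Glycomics database and kept only where the protein sequence was available. Glycan names were converted to IUPAC-condensed notation, and columns mapping to the same glycan were averaged. The binding signal is a within-array Z-score, averaged across arrays of the same protein sequence at different concentrations or buffers and across linkers. Negative Z-scores can be read as non-binding.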

[2] = molecular target: GlcNAc(b1-4)[GlcNAc(b1-6)]GalNAc
Method in brief: as §1

[3] = molecular target: GlcNAc(b1-6)Gal(b1-4)GlcNAc
Method in brief: as §1

GlcNAc(b1-6)GalNAc = molecular target: GlcNAc(b1-6)GalNAc
Method in brief: as §1

[4] = molecular target: GlcNAc6S(b1-3)Gal(b1-4)GlcNAc
Method in brief: as §1

Kdn(a2-3)Gal(b1-3)GalNAc = molecular target: Kdn(a2-3)Gal(b1-3)GalNAc
Method in brief: as §1

Kdn(a2-3)Gal(b1-3)GlcNAc = molecular target: Kdn(a2-3)Gal(b1-3)GlcNAc
Method in brief: as §1

Kdn(a2-3)Gal(b1-4)Glc = molecular target: Kdn(a2-3)Gal(b1-4)Glc
Method in brief: as §1

Kdn(a2-3)Gal(b1-4)GlcNAc = molecular target: Kdn(a2-3)Gal(b1-4)GlcNAc
Method in brief: as §1

[5] = molecular target: Kdn(a2-3)Gal(b1-4)[Fuc(a1-3)]GlcNAc
Method in brief: as §1

Kdn(a2-6)Gal(b1-4)GlcNAc = molecular target: Kdn(a2-6)Gal(b1-4)GlcNAc
Method in brief: as §1

[6] = molecular target: Man(a1-2)Man(a1-2)Man(a1-3)Man
Method in brief: as §1

[7] = molecular target: Man(a1-2)Man(a1-2)Man(a1-6)[Man(a1-3)]Man
Method in brief: as §1

Man(a1-2)Man(a1-3)Man = molecular target: Man(a1-2)Man(a1-3)Man
Method in brief: as §1

[8] = molecular target: Man(a1-2)Man(a1-3)[Man(a1-2)Man(a1-6)]Man
Method in brief: as §1

[9] = molecular target: Man(a1-2)Man(a1-3)[Man(a1-2)Man(a1-6)]Man(a1-6)[Man(a1-2)Man(a1-2)Man(a1-3)]Man
Method in brief: as §1

[10] = molecular target: Man(a1-2)Man(a1-3)[Man(a1-2)Man(a1-6)]Man(a1-6)[Man(a1-2)Man(a1-2)Man(a1-3)]Man(b1-4)GlcNAc(b1-4)GlcNAc
Method in brief: as §1

[11] = molecular target: Man(a1-2)Man(a1-3)[Man(a1-6)]Man(a1-6)[Man(a1-2)Man(a1-3)]Man(b1-4)GlcNAc(b1-4)GlcNAc
Method in brief: as §1

[12] = molecular target: Man(a1-2)Man(a1-6)[Man(a1-3)]Man(a1-6)[Man(a1-2)Man(a1-2)Man(a1-3)]Man
Method in brief: as §1

[13] = molecular target: Man(a1-2)Man(a1-6)[Man(a1-3)]Man(a1-6)[Man(a1-2)Man(a1-2)Man(a1-3)]Man(b1-4)GlcNAc(b1-4)GlcNAc
Method in brief: as §1

Man(a1-3)[Man(a1-6)]Man = molecular target: Man(a1-3)[Man(a1-6)]Man
Method in brief: as §1

[14] = molecular target: Man(a1-3)[Man(a1-6)]Man(a1-6)[Man(a1-2)Man(a1-3)]Man(b1-4)GlcNAc(b1-4)GlcNAc
Method in brief: as §1

[15] = molecular target: Man(a1-3)[Man(a1-6)]Man(a1-6)[Man(a1-3)]Man
Method in brief: as §1

[16] = molecular target: Man(a1-3)[Man(a1-6)]Man(a1-6)[Man(a1-3)]Man(b1-4)GlcNAc(b1-4)GlcNAc
Method in brief: as §1

[17] = molecular target: Man(a1-3)[Man(a1-6)]Man(b1-4)GlcNAc(b1-4)GlcNAc
Method in brief: as §1

[18] = molecular target: Man(a1-3)[Man(a1-6)]Man(b1-4)GlcNAc(b1-4)[Fuc(a1-6)]GlcNAc
Method in brief: as §1

Man(a1-6)Man = molecular target: Man(a1-6)Man
Method in brief: as §1

Man(b1-4)GlcNAc = molecular target: Man(b1-4)GlcNAc
Method in brief: as §1

MurNAc(b1-4)GlcNAc = molecular target: MurNAc(b1-4)GlcNAc
Method in brief: as §1

Neu5Ac(a2-3)Gal = molecular target: Neu5Ac(a2-3)Gal
Method in brief: as §1

[19] = molecular target: Neu5Ac(a2-3)Gal(b1-3)GalNAc
Method in brief: as §1

[20] = molecular target: Neu5Ac(a2-3)Gal(b1-3)GalNAc(b1-3)Gal(a1-4)Gal(b1-4)Glc
Method in brief: as §1

[21] = molecular target: Neu5Ac(a2-3)Gal(b1-3)GalNAc(b1-4)[Neu5Ac(a2-3)]Gal(b1-4)Glc
Method in brief: as §1

[22] = molecular target: Neu5Ac(a2-3)Gal(b1-3)GalNAc(b1-4)[Neu5Ac(a2-8)Neu5Ac(a2-3)]Gal(b1-4)Glc
Method in brief: as §1

[23] = molecular target: Neu5Ac(a2-3)Gal(b1-3)GalNAc6S
Method in brief: as §1

[24] = molecular target: Neu5Ac(a2-3)Gal(b1-3)GlcNAc
Method in brief: as §1

[25] = molecular target: Neu5Ac(a2-3)Gal(b1-3)GlcNAc(b1-2)Man
Method in brief: as §1

B1: PX14367A-bth-493-35-493 (Bacteroides thetaiotaomicron) (protein)
chain: VSSDQVAVAGNAERLFNGAWYNLFEYGTTYANIGYRALQCQDDMMASDVVSRPKYGFNSSYQFNDVAIPSDGRTSFAWYLIYKTIDNCNTAISIKGDSEELRQAQGQALALRAFCYLHLVQHYQFTYLKDKDAPCVPIYTEPTTSGTKPKGKSTVAQVYQQIFDDLNLAQDYLTNYVRKGDGQKFKPNTDVVNGLMARAYLLTGQWGEAAKAAEAARKGYSLMTTTAEYEGFNNISNKEWIWGSPQTLSQSDASYNFYYLDATYVGAYSSFMADPHLMDTFVKGDIRLPLFQWMREGYLGYKKFHMRSDDTADLVLMRSAEMYLIEAEAKVRDGVALDQAVAPLNTLRTARGVGNYDVTGKTKEQVIDEILMERRRELWGEGFGITDVLRNQKAVERMALSEDMQKTEVDCWQEGGSFAKRNPLGHWFLNFPDGKAFSANSSYYLYAIPEKEINANPNL
glycan array binding signal (z-score) [1]: -0.312
glycan array binding signal (z-score) [2]: 0.088
glycan array binding signal (z-score) [3]: -0.526
glycan array binding signal (z-score) (GlcNAc(b1-6)GalNAc): -0.498
glycan array binding signal (z-score) [4]: -0.213
glycan array binding signal (z-score) (Kdn(a2-3)Gal(b1-3)GalNAc): 0.025
glycan array binding signal (z-score) (Kdn(a2-3)Gal(b1-3)GlcNAc): -0.708
glycan array binding signal (z-score) (Kdn(a2-3)Gal(b1-4)Glc): -0.558
glycan array binding signal (z-score) (Kdn(a2-3)Gal(b1-4)GlcNAc): -0.675
glycan array binding signal (z-score) [5]: -0.445
glycan array binding signal (z-score) (Kdn(a2-6)Gal(b1-4)GlcNAc): -0.387
glycan array binding signal (z-score) [6]: -0.464
glycan array binding signal (z-score) [7]: -0.257
glycan array binding signal (z-score) (Man(a1-2)Man(a1-3)Man): 0.44
glycan array binding signal (z-score) [8]: -0.301
glycan array binding signal (z-score) [9]: -0.145
glycan array binding signal (z-score) [10]: -0.193
glycan array binding signal (z-score) [11]: -0.608
glycan array binding signal (z-score) [12]: 0.14
glycan array binding signal (z-score) [13]: -0.419
glycan array binding signal (z-score) (Man(a1-3)[Man(a1-6)]Man): -0.744
glycan array binding signal (z-score) [14]: -0.483
glycan array binding signal (z-score) [15]: -0.034
glycan array binding signal (z-score) [16]: -0.196
glycan array binding signal (z-score) [17]: 0.166
glycan array binding signal (z-score) [18]: -0.393
glycan array binding signal (z-score) (Man(a1-6)Man): 0.932
glycan array binding signal (z-score) (Man(b1-4)GlcNAc): -0.264
glycan array binding signal (z-score) (MurNAc(b1-4)GlcNAc): -0.441
glycan array binding signal (z-score) (Neu5Ac(a2-3)Gal): -0.216
glycan array binding signal (z-score) [19]: -0.407
glycan array binding signal (z-score) [20]: -0.232
glycan array binding signal (z-score) [21]: 0.239
glycan array binding signal (z-score) [22]: -0.448
glycan array binding signal (z-score) [23]: -0.149
glycan array binding signal (z-score) [24]: -0.474
glycan array binding signal (z-score) [25]: -0.388
